Numbering of substitutions follows the chain as printed. Results are given in words; binding and its absence hold for the method and conditions named. In cells and extracts the contact can be indirect. Some results given as binding are weak or reduced against the parent protein; the word gives no strength. Tags and fused reporters may be left off the sequences shown.
Experiments:
Experiment in all cases: co-IP; V5H6-tagged FRQ (wild type or mutant) pulled down with V5 agarose from Neurospora lysate (cultures in the light, 25 °C); 50 mM Hepes pH 7.4, 137 mM NaCl, 10% glycerol, 0.4% NP-40; 4 °C, 2 h; Western blot with FRQ, FRH, WC-1 and WC-2 antibodies
[1] = biological target: T1, FRQ D664A, D667A, V5H6-tagged (Neurospora crassa) (UniProt P19970)
T1 sequence: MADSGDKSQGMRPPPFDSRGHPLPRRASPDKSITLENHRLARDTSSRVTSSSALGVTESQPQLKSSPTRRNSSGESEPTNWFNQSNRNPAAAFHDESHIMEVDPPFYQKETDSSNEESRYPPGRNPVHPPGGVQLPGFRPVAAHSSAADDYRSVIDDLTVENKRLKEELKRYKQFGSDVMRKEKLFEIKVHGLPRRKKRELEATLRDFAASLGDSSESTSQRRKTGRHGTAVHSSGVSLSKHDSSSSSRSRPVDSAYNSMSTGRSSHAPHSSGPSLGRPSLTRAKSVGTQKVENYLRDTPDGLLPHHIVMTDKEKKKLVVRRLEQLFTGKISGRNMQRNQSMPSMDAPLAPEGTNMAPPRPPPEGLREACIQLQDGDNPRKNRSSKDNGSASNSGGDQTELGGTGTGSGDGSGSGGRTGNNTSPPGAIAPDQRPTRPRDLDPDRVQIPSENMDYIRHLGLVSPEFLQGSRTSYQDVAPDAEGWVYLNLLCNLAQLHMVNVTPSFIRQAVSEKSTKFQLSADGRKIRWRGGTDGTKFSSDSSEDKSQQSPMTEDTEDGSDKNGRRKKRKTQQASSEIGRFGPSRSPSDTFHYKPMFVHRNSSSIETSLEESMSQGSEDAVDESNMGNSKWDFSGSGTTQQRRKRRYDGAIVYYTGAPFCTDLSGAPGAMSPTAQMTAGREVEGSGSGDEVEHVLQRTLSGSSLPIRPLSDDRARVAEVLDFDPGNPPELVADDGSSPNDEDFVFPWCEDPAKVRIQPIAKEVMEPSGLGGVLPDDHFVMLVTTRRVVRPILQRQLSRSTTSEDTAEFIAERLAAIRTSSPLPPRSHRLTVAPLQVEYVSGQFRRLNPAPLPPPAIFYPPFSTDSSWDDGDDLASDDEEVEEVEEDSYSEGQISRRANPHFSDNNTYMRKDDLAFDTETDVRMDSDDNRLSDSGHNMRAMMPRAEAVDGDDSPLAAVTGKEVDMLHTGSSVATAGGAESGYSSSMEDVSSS

By UniProt entry, the sequences of proteins in these tests, tags left out.
UniProt Q01371: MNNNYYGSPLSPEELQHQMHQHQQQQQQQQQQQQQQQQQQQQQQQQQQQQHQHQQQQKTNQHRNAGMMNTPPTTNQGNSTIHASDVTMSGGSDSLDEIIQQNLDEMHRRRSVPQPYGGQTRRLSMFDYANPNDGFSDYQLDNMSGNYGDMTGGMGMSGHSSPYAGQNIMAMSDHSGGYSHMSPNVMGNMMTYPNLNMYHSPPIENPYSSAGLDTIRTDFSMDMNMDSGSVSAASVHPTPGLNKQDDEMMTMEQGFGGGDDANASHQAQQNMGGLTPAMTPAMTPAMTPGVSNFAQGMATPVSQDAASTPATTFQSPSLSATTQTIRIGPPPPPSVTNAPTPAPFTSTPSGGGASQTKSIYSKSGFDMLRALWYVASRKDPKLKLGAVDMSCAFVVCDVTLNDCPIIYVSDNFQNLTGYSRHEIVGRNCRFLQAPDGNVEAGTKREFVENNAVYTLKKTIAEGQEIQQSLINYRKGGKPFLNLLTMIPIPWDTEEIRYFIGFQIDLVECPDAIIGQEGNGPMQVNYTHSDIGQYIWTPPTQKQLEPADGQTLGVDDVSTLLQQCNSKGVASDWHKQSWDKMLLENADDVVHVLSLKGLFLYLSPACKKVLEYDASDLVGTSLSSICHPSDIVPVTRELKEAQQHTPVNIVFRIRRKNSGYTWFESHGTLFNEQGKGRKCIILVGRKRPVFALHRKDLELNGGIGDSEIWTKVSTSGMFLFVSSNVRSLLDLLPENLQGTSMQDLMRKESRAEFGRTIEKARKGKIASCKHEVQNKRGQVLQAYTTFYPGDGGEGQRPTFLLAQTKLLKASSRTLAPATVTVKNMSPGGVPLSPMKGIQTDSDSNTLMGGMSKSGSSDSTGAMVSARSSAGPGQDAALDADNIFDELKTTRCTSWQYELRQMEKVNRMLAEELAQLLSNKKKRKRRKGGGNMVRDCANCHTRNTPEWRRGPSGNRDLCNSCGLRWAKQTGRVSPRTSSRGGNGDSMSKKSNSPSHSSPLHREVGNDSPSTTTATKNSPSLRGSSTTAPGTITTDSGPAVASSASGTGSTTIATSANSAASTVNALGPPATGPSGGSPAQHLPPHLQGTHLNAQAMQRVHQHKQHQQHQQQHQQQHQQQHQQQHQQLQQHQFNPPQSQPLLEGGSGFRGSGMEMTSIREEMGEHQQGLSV

[2] = biological target: T2, FRQ 1–558, V5H6-tagged (Neurospora crassa) (UniProt P19970)
T2 sequence: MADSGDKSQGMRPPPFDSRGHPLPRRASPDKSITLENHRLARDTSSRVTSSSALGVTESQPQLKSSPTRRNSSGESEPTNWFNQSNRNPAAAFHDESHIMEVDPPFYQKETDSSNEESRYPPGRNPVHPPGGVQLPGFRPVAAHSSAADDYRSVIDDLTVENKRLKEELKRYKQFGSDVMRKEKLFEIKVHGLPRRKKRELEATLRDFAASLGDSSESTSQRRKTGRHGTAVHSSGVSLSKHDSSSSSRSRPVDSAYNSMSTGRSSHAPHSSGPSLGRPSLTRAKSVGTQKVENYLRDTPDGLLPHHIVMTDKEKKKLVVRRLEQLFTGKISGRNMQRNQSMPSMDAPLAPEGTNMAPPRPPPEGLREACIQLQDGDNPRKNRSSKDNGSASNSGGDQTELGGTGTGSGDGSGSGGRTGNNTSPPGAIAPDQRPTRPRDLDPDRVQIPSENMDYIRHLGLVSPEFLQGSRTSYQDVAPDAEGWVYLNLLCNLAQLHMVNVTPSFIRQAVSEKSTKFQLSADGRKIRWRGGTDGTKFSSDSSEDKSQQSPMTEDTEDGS

[3] = biological target: T3, FRQ E801A, D802A, E805A, E809A, V5H6-tagged (Neurospora crassa) (UniProt P19970)
T3 sequence: T1 sequence with A664D, A667D, E801A, D802A, E805A, E809A

## White Collar-1 (WC-1) (from UniProt Q01371 1-1167)
[1]
  binding: binds weakly

B1: White Collar-2 (WC-2) (protein, UniProt P78714 1-530)
chain: MSHGQPPPGSSMYGFGAMGMGSGMGSGMGSGMGTGMGTGMGTGMSASQMTSDPQDMMSLLDTSVFPGFDGMSMSLDVGDSMSNPFTPVSVPPPLPAGNAGPSHVGVCGGHGAPDQLFSPDDLIATSMSSAGPMIATPTTTTSGPSGGPSSGGGSTLTEFTKRRNWPAKVVEELQDWEHILDANGRIKHVSPSVEPLTGYKPPEIIDLFLRDLIHPDDVGVFTAELNEAIATGSQLRLFYRFRKKDGNWTIFETVGHAHIAAAKFAPNPQNQSPFCQAVFMMARPYPTKNAGLLDSFLEHKIENERLKRRIAELRREEQEEQEESHRTWRMSQEGRSDVTPSDDTATQMGMTPFYIPMNAQADVMMPPPSQPASSLNIALTRENLEGIAGSRPDSIREKMLRYEGNHADTIEMLTGLKYQEGERSHGITTGNASPTLIKGDAGIAIPLDRDPRTGEKKKKIKVAEEYVCTDCGTLDSPEWRKGPSGPKTLCNACGLRWAKKEKKKNANNNNNGGGIGGHNDIHTPMGDHMG
[2]
  binding: no binding
[3]
  binding: binds

From article PMC10320511
